Laboratory results as given in article PMC4336329 (PLoS ONE, 2015).
The campaign covered roughly 310,000 compounds. About 14,000 (4.5%) showed an effect of 50% or more. The effect is printed as a negative number. The list shows a part of the results.

Biological target: human ether-à-go-go-related gene (hERG) potassium channel (human, UniProt Q12809)
Assay: primary screen, population patch clamp on CHO cells stably expressing hERG
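Also: peak tail current of the secondary pulse compared with the same well before compound.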

human ether-à-go-go-related gene (hERG) potassium channel, sequence (Q12809 whole entry, looked up): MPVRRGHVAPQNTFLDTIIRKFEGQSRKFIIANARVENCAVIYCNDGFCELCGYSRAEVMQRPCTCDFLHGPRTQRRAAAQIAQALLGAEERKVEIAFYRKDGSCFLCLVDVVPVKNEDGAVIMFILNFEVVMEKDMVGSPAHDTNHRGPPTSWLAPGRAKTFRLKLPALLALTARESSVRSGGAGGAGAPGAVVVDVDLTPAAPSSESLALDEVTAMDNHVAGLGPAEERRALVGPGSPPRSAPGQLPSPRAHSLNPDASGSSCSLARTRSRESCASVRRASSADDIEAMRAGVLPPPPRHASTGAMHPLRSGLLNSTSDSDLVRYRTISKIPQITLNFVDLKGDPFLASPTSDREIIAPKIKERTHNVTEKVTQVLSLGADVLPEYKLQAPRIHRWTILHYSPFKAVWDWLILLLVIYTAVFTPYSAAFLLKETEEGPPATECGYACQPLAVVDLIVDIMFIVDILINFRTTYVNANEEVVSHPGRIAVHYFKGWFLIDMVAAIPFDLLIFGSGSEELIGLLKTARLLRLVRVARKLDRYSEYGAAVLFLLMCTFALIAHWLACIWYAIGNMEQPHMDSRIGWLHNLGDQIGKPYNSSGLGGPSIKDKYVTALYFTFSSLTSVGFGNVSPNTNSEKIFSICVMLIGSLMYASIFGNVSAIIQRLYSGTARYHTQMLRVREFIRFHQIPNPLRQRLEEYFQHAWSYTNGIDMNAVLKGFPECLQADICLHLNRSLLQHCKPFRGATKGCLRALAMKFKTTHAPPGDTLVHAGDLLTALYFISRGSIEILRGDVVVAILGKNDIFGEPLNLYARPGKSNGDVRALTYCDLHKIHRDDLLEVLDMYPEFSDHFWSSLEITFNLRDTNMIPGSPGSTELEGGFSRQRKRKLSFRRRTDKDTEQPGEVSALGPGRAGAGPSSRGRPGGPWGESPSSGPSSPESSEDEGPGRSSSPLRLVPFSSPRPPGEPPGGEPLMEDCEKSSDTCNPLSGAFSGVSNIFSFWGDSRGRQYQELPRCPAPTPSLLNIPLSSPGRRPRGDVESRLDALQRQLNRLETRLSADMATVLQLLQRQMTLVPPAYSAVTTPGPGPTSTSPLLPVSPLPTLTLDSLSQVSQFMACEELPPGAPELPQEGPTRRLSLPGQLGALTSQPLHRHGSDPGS

| Compound | hERG current change (%, negative = inhibition) at 10uM |
| --- | --- |
| O=C(Nc1ccccc1)NC1(C(=O)N2CCN(c3ncccn3)CC2)CCCCC1 | 22.2% |
| COc1ccc(-c2ccc(SCC(=O)NC3CCCC3)nn2)cc1OC | 9.57% |
| COC(=O)CN1C(=O)CN=C(c2ccccc2Cl)c2cc(Br)ccc21 | -8.64% |
| OCCOc1nnnn1-c1ccccc1 | 9.26% |
| Cc1ccc(C(=O)c2c(NC(=O)c3ccccc3)sc(C)c2C)cc1 | 25.5% |
| O=C(NC1CCCCC1)c1cc(Cl)nc2ccccc12 | 4.23% |
| Cc1ccc(S(=O)(=O)N2CCCC(C(=O)NCCc3ccccc3)C2)cc1 (centres unmarked) | 11.5% |
| O=C(/C=C/c1ccc(-c2ccccc2[N+](=O)[O-])o1)c1ccc(F)cc1 | -0.214% |
| O=C(c1ccco1)N1CCN(c2ccc([N+](=O)[O-])cc2Cl)CC1 | -71.4% |
| O=C(Nc1ccc(F)cc1)c1cccnc1N1CCCCC1 | -8.27% |
| CN(C)c1ccc(C=NCC2(O)CCOC(C)(C)C2)cc1 (centres unmarked) | 8.24% |
| Oc1ccc(Cl)cc1C1=Nc2ccccc2N=C(c2ccco2)C1 | 0.578% |
| CCC(c1c(C)[nH]oc1=O)c1c(C)[nH]oc1=O | 8.28% |
| O=C(NCC1CCCO1)C(c1ccc(F)cc1)N(C(=O)Cn1nnc(-c2ccc(F)cc2)n1)c1cccc(O)c1 (centres unmarked) | 9.71% |
| CCN(CC(=O)Nc1ccccc1C(F)(F)F)C(=O)CCc1ccccc1 | 4.72% |
| O=C(Nc1cc(C(F)(F)F)ccc1Cl)C(NCc1ccccc1)c1ccccc1 (centres unmarked) | 2.13% |
| CCN(CC)CCCN1C(=O)C2C(C(=O)Nc3ccc(C(C)C)cc3)C3C=CC2(O3)C1C(=O)NC1CCCCC1 (centres unmarked) | 24.7% |
| COc1ccc(NC(=O)c2ccc(C)cc2Cl)c([N+](=O)[O-])c1 | 27.6% |
| Cc1ccccc1C(=O)N1CCC(C(N)=O)CC1 | 14.8% |
| O=C(Cc1ccccc1)N/N=C/c1cc(Br)cc(Br)c1O | 22.5% |
| O=C(NCCc1ccc(Cl)cc1)C1CCN(C(=O)N2CCOc3ccccc32)CC1 | -43.1% |
| COc1ccccc1C(=O)C1CCCN(Cc2ccc(Oc3ncccn3)cc2)C1 (centres unmarked) | -40.6% |
| O=C(Nc1cccc(NC(=O)C2CC2)n1)C1CC1 | -6.67% |

| Compound | hERG current change (%, negative = inhibition) at 10uM |
| --- | --- |
| O=[N+]([O-])c1ccc(O)c(/C=N/Nc2ccccc2[N+](=O)[O-])c1 | 9.81% |
| CC[C@H](C)[C@H](NC(=O)c1ccccc1)C(=O)Nc1ccc(S(=O)(=O)Nc2cc(C)nc(C)n2)cc1 | 19.2% |
| O=C(NCc1cccs1)c1cc(-c2ccccc2)nn1CC1CC(c2cccc([N+](=O)[O-])c2)=NO1 (centres unmarked) | -66.9% |
| COCCCNc1nc(SCc2ccccc2)nc2sc3c(c12)CCC3 | 30.8% |
| CCOc1ccccc1CNC(=O)CCCn1ccc2cc(S(=O)(=O)N3CCCC3)ccc21 | -20.5% |
| COc1ccc(C2C(C(=O)Nc3ccccn3)=C(C)Nc3ncnn32)c(OC)c1 (centres unmarked) | 2.9% |
| CCOC(=O)CC(NC(=O)Cc1ccccc1)c1ccccc1Cl (centres unmarked) | 1.83% |
| Cn1cc(S(=O)(=O)N2CCCC2)cc1C(=O)NCc1ccc(F)cc1 | -1.25% |
| Cc1nn2c(-c3cccc(NC(=O)CSc4nc5ccccc5o4)c3)nnc2c2ccccc12 | -70.8% |
| Cc1ccc(C(N)=Nc2ccccc2)cc1 | 13.3% |
| COc1cc(CCC(=O)OCC(=O)NCc2ccc(Cl)cc2)cc(OC)c1OC | -4.41% |
| CCOC(=O)c1c(NC(=O)CN2CCN(C)CC2)sc(C(=O)Nc2ccccc2)c1C | -58.9% |
| O=C(O)C(=O)O.O=C(c1ccccc1)N1CCN(C2CCCCC2)CC1 | -31.9% |
| COc1ccc(-c2nc3ccc([N+](=O)[O-])cc3o2)cc1 | 7.28% |
| O=C(NC1CCCC1)c1cc(-c2ccccc2)on1 | -13% |
| Cc1cc(C(=O)Nc2ccc(S(=O)(=O)Nc3nccs3)cc2)c(C)o1 | -4.57% |
| Cn1c(=O)c2c(ncn2CC(=O)Nc2ccc(Cl)cc2Cl)n(C)c1=O | -8.62% |
| Cc1cc(C)nc(Nc2ccc(Br)cc2C(=O)O)n1.Cl | 23.4% |
| CCOC(=O)c1c(NC(=O)c2ccc(N3C(=O)[C@@H]4[C@H](C3=O)[C@H]3C=C[C@@H]4C3)cc2)sc2c1CCCC2 | 4.99% |
| Cc1cc(-c2sccc2C)nc(-n2cccc2)n1 | -4.41% |
| CCOCCOC(=O)Cn1cnc2scc(-c3ccc(C)cc3)c2c1=O | 5.15% |
| Cc1cccc(C)c1NC(=O)c1cc(S(=O)(=O)N2CCOCC2)cn1C | -3.25% |
| CC(=O)Oc1c(Cl)cc(N(C(C)=O)S(=O)(=O)c2ccccc2)c2ccccc12 | 3.92% |

| Compound | hERG current change (%, negative = inhibition) at 10uM |
| --- | --- |
| Cc1ccoc1C(=O)NCCNc1ccc(Cl)cc1[N+](=O)[O-] | -30.5% |
| CC(C)NC(=S)N/N=C/c1ccc(C(C)(C)C)cc1 | 5.26% |
| Cc1ccc(Cl)cc1N1CCN(S(=O)(=O)c2cn(C)cn2)CC1 | -22.4% |
| CCn1nc(NC(=O)COC)c2cc3cc(C)ccc3nc21 | 8.99% |
| O=C(CSc1nnc(Cc2ccccc2)n1-c1cccc(Cl)c1)NNC(=O)Cc1ccccc1 | 7.46% |
| COc1ccc(C(CNC(=O)c2cccc3cccnc23)N(C)C)cc1 (centres unmarked) | -7.67% |
| CCNC(=S)NNC(=O)c1cc(-c2cc(C)ccc2C)nc2ccccc12 | 9.95% |
| CC1=NN(C(N)=S)C(=O)C1N=Nc1ccccc1O (centres unmarked) | 21.9% |
| CC(C)(CO)NC(=O)C12CC3CC(CC(Br)(C3)C1)C2 | 16.7% |
| CCN(CC)c1cc(-c2ccccc2)ncn1.Cl | -16.5% |
| COCCN(C(=O)c1ccc(OC2CCN(S(=O)(=O)N(C)C)CC2)cc1)C(C)C | 8.93% |
| Cc1sc2nc(SCCO)n(-c3ccccc3)c(=O)c2c1C | 11.5% |
| Cc1cc(C)n2nc(CC(=O)NNC(=O)COc3cccc(C)c3C)nc2n1 | 19.5% |
| CCOC(=O)c1cc(NC(=O)Nc2ccccc2Cl)c(C)nc1C | 23.8% |
| Cc1cccc(-c2nc(CS(=O)CC(=O)N3CCN(C)CC3)c(C)o2)c1 (centres unmarked) | 23.6% |
| CCN1CCN(c2cc(C)c3cc(NC(=S)N4CCOCC4)ccc3n2)CC1 | -23.4% |
| Cc1ccc(S(=O)(=O)/N=C(/c2ccccc2)N(C)C)c(C)c1 | 12.7% |
| CCOc1ccc(S(N)(=O)=O)cc1-c1nc2c(C(C)(C)C)nn(C)c2c(=O)[nH]1 | 10.9% |
| COc1ccc(/C=C(\NC(=O)c2ccc(Cl)cc2)C(=O)NCCCN2CCOCC2)cc1OC | 13.9% |
| N#CC1C(=O)NC(N2CCN(c3ccccc3)CC2)=NC12CCCCC2 (centres unmarked) | -9.96% |
| Cc1c(Br)ccc(NC(=O)Cn2nc(-c3cccs3)ccc2=O)c1C | 30.8% |
| CN1CCN(C(=O)c2cccn(Cc3c(Cl)cccc3Cl)c2=O)CC1 | 4.24% |
| COc1cc(C=O)ccc1OCCSc1ccc(C)cc1 | -3.13% |

| Compound | hERG current change (%, negative = inhibition) at 10uM |
| --- | --- |
| CCC(C(=O)Nc1ccccc1OC)n1c(C(=O)OC)cc2ccsc21 (centres unmarked) | -11.3% |
| COC(=O)C1=C(C)N(c2ccc(Cl)c(Cl)c2)C(=O)C1 | -7.05% |
| CN(CCc1ccccn1)Cc1ccc(Cl)c(Cl)c1 | -36.3% |
| CCCCCC(=O)N(CN1C(=O)CCC1=O)c1ccccc1 | 6.44% |
| S=C(NCc1ccccc1)NCC1COc2ccccc2O1 (centres unmarked) | -12% |
| CC1=C(C(=O)OC(C)C)C(c2cccc(F)c2)n2ncnc2N1 (centres unmarked) | -6.25% |
| CCCCc1ccc(NC(=O)Nc2cccnc2)cc1 | 20% |
| CC(=O)c1cccc(NC(=S)NC(=O)c2ccccc2Cl)c1 | -0.116% |
| CN(C)S(=O)(=O)c1ccc2c(c1)nc1n2CCC1 | 10.9% |
| CCOC(=O)c1cccc(NC(=O)C2CCCO2)c1 (centres unmarked) | 4.7% |
| Cc1nnc(NC(=O)C2CCN(c3nnnn3-c3ccccc3)CC2)s1 | -16.2% |
| Cc1ccc(NC(=O)CCSc2ccccc2)c(C)c1 | 3.6% |
| Cc1cc(C(=O)NCCCOC(C)C)c2ccccc2n1 | -7.22% |
| COCCNC(=O)CN1CCN(Cc2cccc(Cl)c2)C1=O | -6.53% |
| C=CCC1(CC=C)CCCN1C(=O)CC1C(=O)NCCN1Cc1cccc(OC)c1 (centres unmarked) | -2.86% |
| COc1ccc(CNC(=O)C2CCN(c3nc(-c4ccccc4)nc4c3CCC4)CC2)cc1 | -19.9% |
| Cn1c(SCC(=O)Nc2cccc(C(=O)O)c2)nnc1-c1cc2cc(Br)ccc2o1 | 11.4% |
| CCN(c1ccccc1)S(=O)(=O)c1cnc[nH]1 | -7.09% |
| COC(=O)c1sc(-c2cccs2)cc1N | 13.1% |
| CC(C)CN(CC(C)C)c1ccc(C=C2C(=O)NC(=S)NC2=O)cc1[N+](=O)[O-] | 9.99% |
